# ChEMBL document CHEMBL1961873, “Compounds: GSK PKIS; Assays: Nanosyn kinase panel” (2012)
# For some assays here: Most of the strong results are listed elsewhere, so they are rarer here than in the full data. The entries are a selection whose mix differs from that of the whole data set.
# Tests used:
# [1] = target: Mitogen-activated protein kinase 3 (Homo sapiens) (UniProt P27361); details: at 1 µM;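 also: values are mean percent inhibition of MAPK3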
# [2] = target: SRSF protein kinase 3 (Homo sapiens) (UniProt Q9UPE1); details: at 0.1 µM
# [3] = target: SRSF protein kinase 3 (Homo sapiens) (UniProt Q9UPE1); details: at 1 µM
# [4] = target: Mitogen-activated protein kinase 11 (Homo sapiens) (UniProt Q15759); details: at 0.1 µM
# [5] = target: Mitogen-activated protein kinase 11 (Homo sapiens) (UniProt Q15759); details: at 1 µM
# [6] = target: T1, Mitogen-activated protein kinase 13 (Homo sapiens) (UniProt O15264); details: at 0.1 µM
# T1 sequence (whole entry): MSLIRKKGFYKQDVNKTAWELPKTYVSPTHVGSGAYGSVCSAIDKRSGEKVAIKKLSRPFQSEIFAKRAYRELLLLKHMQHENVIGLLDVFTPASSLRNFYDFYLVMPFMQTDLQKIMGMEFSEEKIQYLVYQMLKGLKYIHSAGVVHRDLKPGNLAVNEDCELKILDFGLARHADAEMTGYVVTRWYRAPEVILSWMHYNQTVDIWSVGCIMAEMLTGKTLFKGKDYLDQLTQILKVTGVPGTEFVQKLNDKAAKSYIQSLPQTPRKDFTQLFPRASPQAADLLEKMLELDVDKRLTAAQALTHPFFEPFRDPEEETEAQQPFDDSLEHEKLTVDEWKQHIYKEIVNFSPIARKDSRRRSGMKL
# [7] = target: T1, Mitogen-activated protein kinase 13 (Homo sapiens); details: at 1 µM
# [8] = target: T2, Mitogen-activated protein kinase 12 (Homo sapiens) (UniProt P53778); details: at 0.1 µM
# T2 sequence (whole entry): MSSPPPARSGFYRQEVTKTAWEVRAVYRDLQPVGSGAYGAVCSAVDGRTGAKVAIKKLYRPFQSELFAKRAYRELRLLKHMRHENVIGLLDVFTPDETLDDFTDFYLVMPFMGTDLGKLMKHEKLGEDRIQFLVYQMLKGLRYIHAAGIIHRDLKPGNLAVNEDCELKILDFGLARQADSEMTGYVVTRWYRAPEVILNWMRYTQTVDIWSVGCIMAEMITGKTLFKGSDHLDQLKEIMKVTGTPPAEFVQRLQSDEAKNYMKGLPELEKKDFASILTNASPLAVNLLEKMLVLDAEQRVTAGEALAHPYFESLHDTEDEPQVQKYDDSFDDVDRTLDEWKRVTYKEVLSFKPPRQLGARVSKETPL
# [9] = target: T2, Mitogen-activated protein kinase 12 (Homo sapiens); details: at 1 µM
# [10] = target: SRSF protein kinase 1 (Homo sapiens) (UniProt Q96SB4); details: at 0.1 µM
# [11] = target: SRSF protein kinase 1 (Homo sapiens) (UniProt Q96SB4); details: at 1 µM
# [12] = target: Phosphatidylinositol 4,5-bisphosphate 3-kinase catalytic subunit alpha isoform (Homo sapiens) (UniProt P42336); details: at 0.1 µM
# [13] = target: Phosphatidylinositol 4,5-bisphosphate 3-kinase catalytic subunit alpha isoform (Homo sapiens) (UniProt P42336); details: at 1 µM
# [14] = target: T3, Phosphatidylinositol 4,5-bisphosphate 3-kinase catalytic subunit delta isoform (Homo sapiens) (UniProt O00329); details: at 0.1 µM
# T3 sequence (whole entry): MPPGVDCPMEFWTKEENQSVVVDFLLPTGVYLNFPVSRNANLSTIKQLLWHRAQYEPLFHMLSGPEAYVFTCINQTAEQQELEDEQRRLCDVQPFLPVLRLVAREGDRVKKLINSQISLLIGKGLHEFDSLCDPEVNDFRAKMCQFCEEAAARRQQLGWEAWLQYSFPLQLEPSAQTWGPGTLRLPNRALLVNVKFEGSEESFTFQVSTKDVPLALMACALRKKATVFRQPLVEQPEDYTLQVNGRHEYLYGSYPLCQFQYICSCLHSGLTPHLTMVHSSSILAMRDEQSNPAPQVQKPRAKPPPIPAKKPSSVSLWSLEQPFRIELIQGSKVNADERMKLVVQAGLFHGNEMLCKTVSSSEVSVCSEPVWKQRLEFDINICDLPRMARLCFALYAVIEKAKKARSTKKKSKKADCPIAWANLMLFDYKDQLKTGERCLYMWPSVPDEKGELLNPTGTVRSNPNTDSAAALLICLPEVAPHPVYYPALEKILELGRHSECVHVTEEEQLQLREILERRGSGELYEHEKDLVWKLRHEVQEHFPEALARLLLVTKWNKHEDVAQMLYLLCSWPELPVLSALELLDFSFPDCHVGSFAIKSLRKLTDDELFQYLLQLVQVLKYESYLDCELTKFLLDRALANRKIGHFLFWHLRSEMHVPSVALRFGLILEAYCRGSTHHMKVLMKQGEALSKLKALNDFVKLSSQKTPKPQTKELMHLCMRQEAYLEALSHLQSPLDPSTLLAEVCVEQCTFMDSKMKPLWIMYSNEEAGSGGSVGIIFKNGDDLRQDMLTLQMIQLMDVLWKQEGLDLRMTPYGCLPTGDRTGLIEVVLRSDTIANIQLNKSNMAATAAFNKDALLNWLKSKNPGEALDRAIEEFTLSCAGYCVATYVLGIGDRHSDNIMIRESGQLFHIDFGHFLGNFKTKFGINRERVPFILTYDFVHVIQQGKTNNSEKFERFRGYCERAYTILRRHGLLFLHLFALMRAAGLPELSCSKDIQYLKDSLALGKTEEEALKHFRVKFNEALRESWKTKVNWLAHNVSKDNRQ
# [15] = target: T3, Phosphatidylinositol 4,5-bisphosphate 3-kinase catalytic subunit delta isoform (Homo sapiens); details: at 1 µM
# [16] = target: Phosphatidylinositol 4-kinase beta (Homo sapiens) (UniProt Q9UBF8); details: at 0.1 µM
# [17] = target: Phosphatidylinositol 4-kinase beta (Homo sapiens) (UniProt Q9UBF8); details: at 1 µM
# [18] = target: Sphingosine kinase 1 (Homo sapiens) (UniProt Q9NYA1); details: at 0.1 µM;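 also: mean percent inhibition of SPHK1 activity, measured within the GSK PKIS screening panel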
# [19] = target: Mitogen-activated protein kinase 14 (Homo sapiens) (UniProt Q16539); details: at 0.1 µM
# [20] = target: Mitogen-activated protein kinase 14 (Homo sapiens) (UniProt Q16539); details: at 1 µM
# Sequence of UniProt Q16539 (Q16539 whole entry): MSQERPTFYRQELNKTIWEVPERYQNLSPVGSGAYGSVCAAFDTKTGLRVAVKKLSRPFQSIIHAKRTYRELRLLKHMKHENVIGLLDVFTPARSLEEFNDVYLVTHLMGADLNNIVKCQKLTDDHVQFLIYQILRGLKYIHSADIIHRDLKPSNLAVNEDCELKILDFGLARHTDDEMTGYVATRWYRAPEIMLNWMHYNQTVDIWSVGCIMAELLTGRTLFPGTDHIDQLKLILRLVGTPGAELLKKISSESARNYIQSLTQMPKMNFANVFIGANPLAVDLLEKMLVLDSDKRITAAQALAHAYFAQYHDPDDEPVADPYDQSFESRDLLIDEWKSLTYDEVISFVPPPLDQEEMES
# Sequence of UniProt Q15759 (Q15759 whole entry): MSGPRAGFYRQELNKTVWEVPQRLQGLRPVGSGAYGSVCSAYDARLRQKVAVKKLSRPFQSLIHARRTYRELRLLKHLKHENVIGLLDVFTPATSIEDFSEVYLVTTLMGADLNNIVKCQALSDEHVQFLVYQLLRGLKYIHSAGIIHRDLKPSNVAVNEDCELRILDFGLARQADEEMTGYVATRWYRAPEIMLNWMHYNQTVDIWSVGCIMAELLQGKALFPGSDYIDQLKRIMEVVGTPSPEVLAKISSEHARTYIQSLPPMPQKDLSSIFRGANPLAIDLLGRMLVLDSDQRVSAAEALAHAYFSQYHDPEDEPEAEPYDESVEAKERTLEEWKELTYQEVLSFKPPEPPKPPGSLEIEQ
# Sequence of UniProt P27361 (P27361 whole entry): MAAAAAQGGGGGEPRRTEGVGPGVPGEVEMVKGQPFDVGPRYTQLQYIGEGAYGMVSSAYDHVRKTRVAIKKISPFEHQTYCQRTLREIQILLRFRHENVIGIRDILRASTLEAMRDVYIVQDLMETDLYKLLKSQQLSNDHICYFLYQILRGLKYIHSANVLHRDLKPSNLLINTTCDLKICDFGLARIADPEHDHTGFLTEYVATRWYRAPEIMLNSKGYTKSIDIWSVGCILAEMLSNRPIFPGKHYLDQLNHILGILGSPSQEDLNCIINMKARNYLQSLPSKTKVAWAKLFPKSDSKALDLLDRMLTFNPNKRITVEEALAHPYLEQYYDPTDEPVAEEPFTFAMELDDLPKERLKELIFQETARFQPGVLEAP
# Sequence of UniProt Q9NYA1 (Q9NYA1 whole entry): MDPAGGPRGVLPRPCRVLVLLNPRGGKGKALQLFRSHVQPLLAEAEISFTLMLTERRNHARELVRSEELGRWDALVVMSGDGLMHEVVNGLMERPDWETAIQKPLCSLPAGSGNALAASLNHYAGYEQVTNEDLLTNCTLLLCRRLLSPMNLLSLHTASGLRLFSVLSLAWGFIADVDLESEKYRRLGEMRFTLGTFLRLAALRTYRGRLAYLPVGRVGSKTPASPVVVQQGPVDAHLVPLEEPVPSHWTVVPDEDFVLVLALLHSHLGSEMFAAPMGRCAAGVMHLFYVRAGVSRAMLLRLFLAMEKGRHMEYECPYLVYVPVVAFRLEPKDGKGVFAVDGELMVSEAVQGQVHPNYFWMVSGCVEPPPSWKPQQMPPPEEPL
# Sequence of UniProt Q96SB4 (Q96SB4 whole entry, canonical isoform): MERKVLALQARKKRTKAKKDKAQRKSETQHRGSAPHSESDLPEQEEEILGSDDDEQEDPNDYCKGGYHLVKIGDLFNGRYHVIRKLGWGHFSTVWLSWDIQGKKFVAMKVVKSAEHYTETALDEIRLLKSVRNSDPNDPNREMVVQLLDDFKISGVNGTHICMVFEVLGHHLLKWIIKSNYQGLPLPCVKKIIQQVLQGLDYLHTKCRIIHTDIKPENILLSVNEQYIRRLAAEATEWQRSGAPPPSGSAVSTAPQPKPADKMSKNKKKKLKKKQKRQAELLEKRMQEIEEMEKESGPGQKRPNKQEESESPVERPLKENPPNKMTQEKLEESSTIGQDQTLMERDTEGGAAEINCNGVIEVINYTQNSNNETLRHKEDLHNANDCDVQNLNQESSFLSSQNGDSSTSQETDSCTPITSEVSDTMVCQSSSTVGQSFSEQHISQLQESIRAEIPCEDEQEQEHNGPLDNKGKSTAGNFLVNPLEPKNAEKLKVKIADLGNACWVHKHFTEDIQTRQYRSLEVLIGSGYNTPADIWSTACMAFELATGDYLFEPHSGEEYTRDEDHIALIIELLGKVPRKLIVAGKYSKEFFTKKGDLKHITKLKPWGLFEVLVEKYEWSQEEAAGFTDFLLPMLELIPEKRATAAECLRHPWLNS
# Sequence of UniProt Q9UPE1 (Q9UPE1 whole entry): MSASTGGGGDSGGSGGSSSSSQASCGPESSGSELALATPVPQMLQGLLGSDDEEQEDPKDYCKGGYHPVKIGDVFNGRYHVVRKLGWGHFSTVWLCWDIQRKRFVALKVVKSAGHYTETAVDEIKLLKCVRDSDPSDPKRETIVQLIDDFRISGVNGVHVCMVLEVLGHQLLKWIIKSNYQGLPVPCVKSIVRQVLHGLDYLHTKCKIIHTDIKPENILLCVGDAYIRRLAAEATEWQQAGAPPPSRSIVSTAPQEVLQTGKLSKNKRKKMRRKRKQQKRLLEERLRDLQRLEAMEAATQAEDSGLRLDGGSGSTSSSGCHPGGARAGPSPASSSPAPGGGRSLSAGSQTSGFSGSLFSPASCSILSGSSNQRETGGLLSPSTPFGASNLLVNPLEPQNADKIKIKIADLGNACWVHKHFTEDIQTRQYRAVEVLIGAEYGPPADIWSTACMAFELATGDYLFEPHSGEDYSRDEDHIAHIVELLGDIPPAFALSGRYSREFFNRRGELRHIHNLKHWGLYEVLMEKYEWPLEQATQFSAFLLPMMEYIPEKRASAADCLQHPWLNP
# Sequence of UniProt Q9UBF8 (Q9UBF8 whole entry, looked up): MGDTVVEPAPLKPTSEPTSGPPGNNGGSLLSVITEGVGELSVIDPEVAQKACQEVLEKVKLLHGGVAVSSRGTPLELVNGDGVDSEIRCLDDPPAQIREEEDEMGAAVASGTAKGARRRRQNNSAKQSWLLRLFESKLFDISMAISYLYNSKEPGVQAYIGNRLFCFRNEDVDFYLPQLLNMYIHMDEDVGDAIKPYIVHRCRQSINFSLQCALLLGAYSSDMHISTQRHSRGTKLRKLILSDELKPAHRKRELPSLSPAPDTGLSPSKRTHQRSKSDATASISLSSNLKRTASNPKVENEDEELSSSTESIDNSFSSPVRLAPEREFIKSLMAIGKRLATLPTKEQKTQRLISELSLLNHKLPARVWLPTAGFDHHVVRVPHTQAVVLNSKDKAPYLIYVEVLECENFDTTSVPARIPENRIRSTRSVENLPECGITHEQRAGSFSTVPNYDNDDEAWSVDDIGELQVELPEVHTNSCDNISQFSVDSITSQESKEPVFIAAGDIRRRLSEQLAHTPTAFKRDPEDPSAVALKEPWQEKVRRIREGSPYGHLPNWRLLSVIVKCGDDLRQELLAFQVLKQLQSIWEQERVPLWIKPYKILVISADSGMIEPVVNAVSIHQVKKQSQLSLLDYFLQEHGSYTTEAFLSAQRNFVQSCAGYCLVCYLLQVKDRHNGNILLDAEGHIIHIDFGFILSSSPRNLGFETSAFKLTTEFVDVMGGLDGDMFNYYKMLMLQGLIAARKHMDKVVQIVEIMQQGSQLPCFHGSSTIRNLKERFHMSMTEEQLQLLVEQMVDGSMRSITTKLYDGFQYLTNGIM
# Sequence of UniProt P42336 (P42336 whole entry, canonical isoform): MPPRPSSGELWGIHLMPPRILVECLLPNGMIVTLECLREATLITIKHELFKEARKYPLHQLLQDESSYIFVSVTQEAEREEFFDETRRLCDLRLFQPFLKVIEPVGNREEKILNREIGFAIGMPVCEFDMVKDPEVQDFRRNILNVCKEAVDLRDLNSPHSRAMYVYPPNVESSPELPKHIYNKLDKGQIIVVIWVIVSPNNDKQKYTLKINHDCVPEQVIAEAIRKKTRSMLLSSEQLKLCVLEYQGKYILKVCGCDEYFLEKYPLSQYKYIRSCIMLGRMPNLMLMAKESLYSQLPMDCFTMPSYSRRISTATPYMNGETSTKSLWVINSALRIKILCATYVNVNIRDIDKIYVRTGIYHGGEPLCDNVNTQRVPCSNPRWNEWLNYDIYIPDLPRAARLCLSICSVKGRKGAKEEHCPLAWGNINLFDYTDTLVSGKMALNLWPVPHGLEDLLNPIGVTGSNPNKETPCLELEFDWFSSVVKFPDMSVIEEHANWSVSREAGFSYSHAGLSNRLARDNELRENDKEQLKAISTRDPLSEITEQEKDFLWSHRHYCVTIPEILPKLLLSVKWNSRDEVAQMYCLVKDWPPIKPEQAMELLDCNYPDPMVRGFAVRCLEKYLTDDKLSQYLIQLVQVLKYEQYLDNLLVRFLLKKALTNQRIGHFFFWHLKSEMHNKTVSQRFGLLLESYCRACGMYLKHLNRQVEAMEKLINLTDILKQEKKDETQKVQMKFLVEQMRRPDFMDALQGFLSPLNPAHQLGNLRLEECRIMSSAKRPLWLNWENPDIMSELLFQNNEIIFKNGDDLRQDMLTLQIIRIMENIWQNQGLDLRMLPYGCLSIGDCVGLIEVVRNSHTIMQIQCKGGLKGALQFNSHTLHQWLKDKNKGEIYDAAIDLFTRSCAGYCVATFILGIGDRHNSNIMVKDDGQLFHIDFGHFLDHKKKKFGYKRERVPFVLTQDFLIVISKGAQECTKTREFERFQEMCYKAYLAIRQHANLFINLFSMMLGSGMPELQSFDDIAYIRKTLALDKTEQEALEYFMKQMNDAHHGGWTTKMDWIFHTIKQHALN
SMILES,inhibition [1] [%],inhibition [2] [%],inhibition [3] [%],inhibition [4] [%],inhibition [5] [%],inhibition [6] [%],inhibition [7] [%],inhibition [8] [%],inhibition [9] [%],inhibition [10] [%],inhibition [11] [%],inhibition [12] [%],inhibition [13] [%],inhibition [14] [%],inhibition [15] [%],inhibition [16] [%],inhibition [17] [%],inhibition [18] [%],inhibition [19] [%],inhibition [20] [%]
O=C(O)c1ccc(Oc2nccc(-c3c(-c4ccc(F)cc4)ncn3C3CCNCC3)n2)cc1,4.29,3.8,-1.52,4.43,14.8,4.94,6.2,3.9,5.25,-2.32,-1.83,4.28,3.41,0.85,0.96,0.78,17.6,1.88,,
COc1ccccc1Oc1nccc(-c2c(-c3ccc(F)cc3)ncn2C2CCNCC2)n1,3.82,-1.68,1.72,26.4,71.1,5.27,4.63,3.76,5.21,-2.79,-2.14,4.16,4.47,0.8,2.11,4.36,-4.4,0.67,,
O=C1NC(=O)C(c2ccccc2Cl)=C1Nc1cc(Cl)c(O)c(Cl)c1,2.08,1.01,5.67,2.74,5.93,2.21,4.86,0.28,2.38,-0.35,2.05,3.32,3.87,0.68,0.51,1.46,1.42,-0.6,2.4,5.09
Fc1ccc(Oc2nccc(-c3c(-c4ccc(F)cc4)ncn3C3CCNCC3)n2)cc1,6,2.65,-0.46,5.66,33.1,4.75,6.61,3.85,5.26,-2.19,-1.04,2.7,1.19,0.14,0.22,3.43,4.1,-0.33,,
Fc1ccc(-c2ncn(C3CCNCC3)c2-c2ccnc(Oc3cccc(F)c3)n2)cc1,5.44,-0.5,-0.04,14.2,54.6,6.49,,4.93,5.53,-1.58,-1.18,4.5,5.4,-0.09,2.59,-2.95,1.83,4.74,,
O=C1NC(=O)C(c2cccc([N+](=O)[O-])c2)=C1Nc1cc(Cl)c(O)c(Cl)c1,2.24,-1.26,-0.59,3.03,1.62,1.29,-0.48,1.04,0.16,-1.92,-1.65,1.4,3.22,-0.25,-1.09,7.07,6.09,0.59,2.42,6.98
O=C1NC(=O)C(c2ccccc2)=C1Nc1ccccc1,3.62,-0.95,-0.16,5.95,6.14,3.54,8.68,1.66,4.97,-0.98,-0.11,3.99,4.22,1.58,1.62,-1.79,5.21,0,5.29,8.65
